Data: the RNAGym collection of RNA variant scans (doi:10.7554/elife.90254)
Read counts are not given, so values of variants with three or more changes are uncertain.

B1: LINE1-mini (parent)
chain: GGCAGAGCUCAACACAGCGUGGCAAAGUGGCUGUGGCUAGACUGCC

Variants of: B1
Test: self-cleavage, relative activity (ratio to wild type); higher = more cleavage; in vitro, sequencing; the parent is a self-cleaving ribozyme

| Variant | self-cleavage |
| --- | --- |
| GGCAGAGCUCAACACAGCGUGGCAAAUUGGUUCUGGCUAUACUGCC | 0.11 |
| GGCACAGCUCAACACAGCGUGGUGAAGUGCCUGUGGCUAGACUGCC | 0.04 |
| GUCAGAGCUCAACACAGCGUGGGAAUGUGGCUGUGGCUAGACUGUC | 0.05 |
| GGCAGUGCUUAACACAUCGUGGCAAAGUGACUGUGGCUAGACUGCC | 0.13 |
| GGCAGGGCUCAACACAACGUAGCAAAUUGGUUGUGGCUAGACUGCC | 0.1 |
| GGCAGAGCUCAACACACCGUGGCAGAGUGGCUGUGGCUAGACUGCG | 0.04 |
| GGCAGAGCUCAACACAACGUGGAAAAGUGGUUGUGCCUAGACUGCC | 0.04 |
| GGCAGAGCUCAACACAGCGUGUCAAAGUGGGUGUGGAUAGACUGCC | 0.04 |
| GGCAGUGCUCAACUCAGCGUGGCAAAGUGGCUGUGGCUCGACUGUC | 0.48 |
| GACAAAGCUCAACACAACGUGGCAAAGGGGCUGUGGCUCGACUGCG | 0.04 |
| GGCAGAGAUCAACAGAGCGUGGCAAAGUGGCUGUGGCUAGACUUCC | 0.06 |
| GGCAGAGCUCAACACAGCGUGGCAAAGUUAAUGUGGAUAGACUGCC | 0.07 |
| GGGAGAGCUGAACACAGUGUGGCAAAGUGGCUGUGGCUAGACUGCC | 0.04 |
| GGCAGAGCUCUACACAGCUUGGCAAAGUGGCUGUGGCUAGACUGAU | 0.03 |
| GGCAGAGCUCAACACAGCGUGGCAAAGGUGCUGUAGCUAGACUGCC | 0.07 |
| GGCAGAGCCCAACACAGCGCGGCAAAGUGGCUAUGGCUAGAUUGCC | 0.02 |
| GGAAGAGCUCAACACAGCAUGGCAAAAUGGCUGUGGCUAAACUGCC | 0.15 |
| GACAGCGCUCAACACAGCGUGGCAAAGUGGCUGUGACUACACUGCC | 0.08 |
| GGCAGACCUCAACACAGGGUGGCUAAGAGGCUGUGGCUAGACUGCC | 0.02 |

| Variant | self-cleavage |
| --- | --- |
| GGCAGUGCUCAACAUAGCGUGGCAAUGUGGCUAGGGCUAGACUGCC | 0.24 |
| GGCAGAGCUCAACACAGCGUGGCACAAUGGCUGUGGAUAGAGUGCC | 0.01 |
| GGCGGAGUUCAACACAGCGUGGCACAGUGACUGUAGCUAGAGUGCC | 0.23 |
| GGCAGACCUGAACGCAGCGUGGCGAAGUGGCUGUGGCGAGACUGCC | 0.01 |
| GGCGGAGCUCAACACAGCGUGGAAAACUGGCUGUGCCCAGACUGCC | 0.02 |
| GGCAGAGCUCAACACAGCGUGCCAAAGUGGCUGUGGUGAGGCUGCC | 0.01 |
| GGCAGAGCUCUACACAGCGUGGCAAAGUGGCUGUGUUUAGACUGCC | 0 |
| GGCAGACCUCAAAACAGCGUGGCAAAGUGGAUGUGGCUAGACUGCC | 0.08 |
| GGCAGAGCUCAAAACAGCGUGGCAGAGUGGCUGUGCGUAGAGUGCC | 0.01 |
| GCCAGAGCUCAACACAGCGUGGCAAAGUGUCUGUGGCUAGACUGCU | 0.05 |
| GGCAGAGAUAAACAGAGCGUGCCAAACUGGCUGUGGCUACACUGCC | 0.03 |
| GCCACAGCUCAACACUGCGUGUCAAAGUGGCUGUGGCUAGACUGCC | 0.04 |
| AGCAGAGCUCAACACAGCGUGGCAAAGUGGCUGUGGCAGGACUGCC | 0.09 |
| GGCAGAGCUCACCACAGCGUGGCAAAGUCGCUGUGGCUAGAGUGCC | 0 |
| GGCAGAGGUAAACAAGGCGUGGCAUAGUGACUGUGGCUAGACUGCC | 0.02 |
| GGCAGAGCUCAACACAGCGUGGCGAACUGGCUGUGGCUCGACUGCC | 0.36 |
| GGCAGAGCUCAACACUGCGUGGCAAAGUGGCUUUGGUUAGACUGCC | 0.03 |
| GGCAAAGCUCAACACAGCGUGGCAAAGUGGAUGAGUCUAGUCUGCC | 0.07 |
| GGCUGAGCUCAACACGGCGUGGCAAAGUGGCUGUGCCUAGACUGCC | 0.02 |

| Variant | self-cleavage |
| --- | --- |
| UGCAGAGCUCAACACAGCGUCGCAACGUGGCUGUCGGUAGAGUGCC | 0.01 |
| GGCAGAGCUCAACACUGCUUGGCUAAGUGGCUGUGGCUAGACUGCC | 0.05 |
| CGUAGAGCUCAACACAGCGUGGCAAAGUGGCUGUUGCUAGACUGCC | 0.63 |
| GGCAGUGCUCACCACAGCGUGGCAAAGUGGCUGUGGAUAGACUGCC | 0.04 |
| GGUAGAGCUCAAAACAGCGUGGUUAAGAGGAUGUGGCUAGGUUGCC | 0.07 |
| GGCGGAGCUCAACACAGCGUGGCAAAGUCGCUGUGGCUAUACUGCC | 0.03 |
| GGCAGAGCUGGACACACGGUGGCAAAGUGGCUGUGGCUAGACUGCC | 0 |
| GGCAGAGCUCAACACAGCGUGGCAAAGGGGCUGUGGCUAGACUGUA | 0.15 |
| GGCAGUGCUCAACACAGCAUCGCAGAGUGGCUGUGUCUAGAAUGCC | 0.02 |
| GGCAGAGGUCAAGACAGCGUGGCAAAGUGUCUGUGGCUAGACUGCC | 0.03 |
| GGCAGAGUUCAAGACAGCGUGGCAAAGUGGCUGUGGCAAGACUGCC | 0.02 |
| GGCAGUGCUCAACACAGCGUGGCCAGAUGGCUGUGGCUAGACUGCC | 0.48 |
| GGCAGAGCUCAACACAACGGGGCAAAGUGGCUGUGGCUAGAUUGCC | 0.01 |
| GUCAGAGCUCAACACAGCGUGGCAAAGUGGCUGUCGCUAGAUUGAC | 0.03 |
| GGCAGAGCUUAAGUCAGCGUGGCAAAGUCGCUGUGGCUAGACUGCC | 0.02 |
| CGCAGACCUCAGCACAGCGUGGCAAAGUGGCUGUGGCUAGAUUGCC | 0.04 |
| GGCAGAGGUCAACACAUCGUGGAAAAGUGGCUGUGGCUAGACUGCG | 0.03 |
| GGCAGAGCUCAACAUAGCGUGACAAAGUGGCUGUGGUUAGACUGCC | 0.04 |
